Reference: paper PMC4336329 (PLoS ONE, 2015)
Out of some 310,000 compounds screened, about 2,200 (0.71%) showed an effect of 50% or more. Effects have a minus sign here. This is one part of the list.

Molecular target: human ether-à-go-go-related gene (hERG) potassium channel (human, UniProt Q12809)
Assay: primary screen, population patch clamp on CHO cells stably expressing hERG

Sequence of human ether-à-go-go-related gene (hERG) potassium channel (Q12809 whole entry, looked up): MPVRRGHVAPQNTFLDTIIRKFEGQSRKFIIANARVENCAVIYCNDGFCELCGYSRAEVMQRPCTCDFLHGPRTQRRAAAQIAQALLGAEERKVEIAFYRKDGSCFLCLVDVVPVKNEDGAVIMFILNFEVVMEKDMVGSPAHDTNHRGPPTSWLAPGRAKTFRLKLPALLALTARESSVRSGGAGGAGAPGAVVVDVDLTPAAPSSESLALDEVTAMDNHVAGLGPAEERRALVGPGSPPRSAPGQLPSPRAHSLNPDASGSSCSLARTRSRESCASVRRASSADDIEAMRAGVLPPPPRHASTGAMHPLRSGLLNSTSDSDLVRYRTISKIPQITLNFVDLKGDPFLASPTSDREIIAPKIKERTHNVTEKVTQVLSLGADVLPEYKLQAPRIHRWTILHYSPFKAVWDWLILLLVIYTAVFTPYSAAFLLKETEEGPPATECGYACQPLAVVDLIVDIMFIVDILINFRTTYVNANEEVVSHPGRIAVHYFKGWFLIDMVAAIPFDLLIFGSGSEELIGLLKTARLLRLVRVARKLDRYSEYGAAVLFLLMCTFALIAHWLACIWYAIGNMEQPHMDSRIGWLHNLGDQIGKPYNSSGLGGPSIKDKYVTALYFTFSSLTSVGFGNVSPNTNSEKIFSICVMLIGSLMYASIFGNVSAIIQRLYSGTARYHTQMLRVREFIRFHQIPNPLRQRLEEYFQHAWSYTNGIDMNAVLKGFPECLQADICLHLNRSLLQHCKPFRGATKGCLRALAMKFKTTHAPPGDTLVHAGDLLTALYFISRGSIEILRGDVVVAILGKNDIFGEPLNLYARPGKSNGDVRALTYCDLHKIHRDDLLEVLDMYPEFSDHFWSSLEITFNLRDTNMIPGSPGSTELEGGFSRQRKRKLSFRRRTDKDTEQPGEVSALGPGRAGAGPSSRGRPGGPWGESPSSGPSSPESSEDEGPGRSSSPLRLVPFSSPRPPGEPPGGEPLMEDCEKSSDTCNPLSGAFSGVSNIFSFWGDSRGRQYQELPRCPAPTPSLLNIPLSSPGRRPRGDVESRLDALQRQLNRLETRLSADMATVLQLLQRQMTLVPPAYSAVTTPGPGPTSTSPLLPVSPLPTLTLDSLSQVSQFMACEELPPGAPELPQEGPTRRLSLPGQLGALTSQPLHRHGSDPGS

Compound | hERG current change (%, negative = inhibition) at 1uM [%]
Cc1ccc(S(=O)(=O)N(C)C)cc1NC(=O)C1CCCCN1S(=O)(=O)c1ccccc1 (stereo not drawn) | 0.568
C=CCN1C(=O)SC(Cc2cccc(OC)c2O)C1=O (stereo not drawn) | 2.31
COc1cc(NC(=O)Cc2cccs2)c(C(=O)O)cc1OC | 21.2
Cc1ccc2c(c1)c1c(n2C)-c2[nH]ncc2CC1 | 2.76
CCn1nnnc1SCC(=O)Nc1cc(C)on1 | 7.26
O=[N+]([O-])c1cc(S(=O)(=O)N2CCCCC2)ccc1NCCCN1CCOCC1 | -10.3
COc1ccc(/C(O)=C2/C(=O)C(=O)N(CCN(C)C)C2c2ccc(C)cc2)cc1Cl (stereo not drawn) | -1.16
CC(C)N1CCc2c(sc(NC(=O)c3ccco3)c2C(N)=O)C1.Cl | 8.01
CCOCCCn1c(=N)c(S(=O)(=O)c2ccccc2)cc2c(=O)n3cc(C)ccc3nc21 | 11.3
CC(=O)c1ccc(OC(=O)COc2ccccc2Cl)cc1 | 19.8
Cc1ccccc1CN1CCCC(C(=O)Nc2ccc(-c3ccn[nH]3)cc2)C1 (stereo not drawn) | 18.9
Cc1nc(N2CCN(c3ccccn3)CC2)c2c(C)c(C(=O)Nc3ccccc3F)sc2n1 | -4.74
C#CCOCCOCCOCCNc1nc(N2CCN(C(=O)[C@H]([C@@H](C)CC)n3cc(CCCC[NH3+])nn3)CC2)nc(N2CCN(C(=O)[C@H](CCCC[NH3+])n3cc(CC(C)O)nn3)CC2)n1.[Cl-] (stereo partly drawn) | 6.46
CCc1cccc(OCCN2CCCC2)c1 | -2.86
C=CCNC(=O)Nc1ccc(Cl)cn1 | -12.6
CCN1CCCc2cc(CN(CCN3CCOCC3)C(=S)Nc3cc(F)cc(F)c3)ccc21 | 7.28
COc1ccc(C(C)=O)cc1COC(=O)c1cc2ccccc2cc1O | 12.1
C=CCn1c(COc2cccc3ccc(C)nc23)nnc1SCC(N)=O | 8.35
CC(=O)Nc1ccc(S(=O)(=O)N2CCCC3CCCCC32)cc1 (stereo not drawn) | 9.36

Compound | hERG current change (%, negative = inhibition) at 1uM [%]
CC(Cl)C(=O)Nc1cc(C(C)(C)C)nn1-c1ccccc1 (stereo not drawn) | 12.8
Cc1ccc(C(=O)N2CCN(c3ccc([N+](=O)[O-])cc3-n3cccc3)CC2)cc1 | -16.4
O=C1OCCC1Sc1nc(-c2ccccc2)cs1 (stereo not drawn) | 6.3
Cl.Cn1cccc1CNCc1ccccc1Cl | 6.89
CCCCNc1c(-c2cccc(-c3cc(C(C)=O)cs3)c2)nc2ccc(C)cn12.O=C(O)C(F)(F)F | 10.2
CN(C)CC1CCCCC1=O.Cl (stereo not drawn) | 12
Cc1ccc(C(=O)Nc2ccc3ncccc3c2)cc1 | 10.7
O=C1c2ccccc2NC(c2cccc(F)c2)N1Cc1ccccc1 (stereo not drawn) | 0.865
COc1ccccc1N1CC(C(=O)Nc2ccc3c(c2)OCO3)CC1=O (stereo not drawn) | 7.12
CCn1c(SCc2ccc(OC)c(F)c2)nc2ccccc2c1=O | 17.2
COc1cc(OC)c(C(=O)N2CCCC2)cc1OC | 6.17
CC(C)Cc1ccc(C(C)C(=O)Nc2ccccc2O)cc1 (stereo not drawn) | 10.1
Oc1c(Br)cc(Br)cc1C=Nc1cccnc1 | 10.5
COc1ccccc1CNC(=O)CN(c1ccc(C)cc1)S(=O)(=O)c1c(C)n[nH]c1C | 9.68
COC(=O)CSc1nnc(SCc2ccc(Cl)cc2)s1 | 8.13
CCN(CC)C(=O)CSc1nnc([C@@H](N)C(C)C)o1.Cl | 15.2
CCOC(=O)c1cnc(-n2nc(C)cc2C)nc1N(C)C | 0.34
CCOC(=O)N1CCN(C(=O)c2cccc(S(=O)(=O)Nc3ccc(OC)cc3)c2)CC1 | 5.95
O=C(CSc1c2c(nc3cc(Cl)ccc13)CCCC2)NCCN1CCOCC1 | 0.879

Compound | hERG current change (%, negative = inhibition) at 1uM [%]
Cc1c(Cl)cccc1NC(=O)[C@@H](NC(=O)c1ccccc1Cl)C(C)C | 4.34
O=C(NC1CCCC1)C(c1ccc(F)cc1)N(C(=O)c1csnn1)C1CC1 (stereo not drawn) | 2.95
Nc1ccc(C2(c3ccc(N)cc3)OC(=O)c3ccccc32)cc1 | 6.66
COCCOC(=O)C1=C(C)NC(=O)NC1c1c(Cl)nc2ccccn2c1=O (stereo not drawn) | 7.13
CC(C)(C)NS(=O)(=O)c1ccc(NC(=S)NC(=O)C2CC2)cc1 | 10.5
COc1ccc(C(=O)COC(=O)c2cc(S(=O)(=O)NCc3ccccc3)ccc2O)cc1 | 11.6
O=C(NCc1ccc2c(c1)OCO2)NC12CC3CC(CC(C3)C1)C2 | 9.28
COc1ccccc1NC(=S)NNC(=O)c1nn(C)c(C)c1Cl | 3.98
Cc1cc(C[n+]2ncsc2N)c2ncccc2c1.[Br-] | -5.08
O=C1NCCN/C1=C\C(=O)c1cccc(Br)c1 | 1.79
CCN(CC(=O)Nc1c(F)cccc1F)C(=O)CCCc1c[nH]c2ccccc12 | 14.5
CC(C)(C)c1ccc(-c2nnc(NC(=O)c3ccccc3)s2)cc1 | 3.7
CCOC(=O)c1ccc(NC(=O)[C@@H](NC(N)=O)C(C)C)cc1 | -0.13
O=C(COC(=O)[C@H](Cc1ccccc1)NC(=O)c1cccs1)NC1CCCCC1 | 2.71
O=C(CCCSc1nnnn1-c1cccc2ccccc12)c1ccc(F)cc1 | 3.22
NS(=O)(=O)c1ccc(CNS(=O)(=O)Cc2ccc(Cl)cc2)cc1 | 13.6
O=[N+]([O-])c1ccc(N2CCNCC2)cc1Sc1ccccn1 | -1.17
COc1ccc(Nc2cc(C)nc(-n3nc(C)cc3C)n2)cc1 | -5.13
COc1cc(CNCCC2CCOC(C)(C)C2)ccc1O.Cl (stereo not drawn) | 7.33
